From paper PMC4336329 (PLoS ONE, 2015)
The whole screen tested about 310,000 compounds, of which about 2,200 (0.71%) showed an effect of 50% or more. The effect is printed as a negative number. This is one part of the list.

These molecules were tested against human ether-à-go-go-related gene (hERG) potassium channel (human, UniProt Q12809) (assay: primary screen, population patch clamp on CHO cells stably expressing hERG).
human ether-à-go-go-related gene (hERG) potassium channel, sequence (Q12809 whole entry, looked up): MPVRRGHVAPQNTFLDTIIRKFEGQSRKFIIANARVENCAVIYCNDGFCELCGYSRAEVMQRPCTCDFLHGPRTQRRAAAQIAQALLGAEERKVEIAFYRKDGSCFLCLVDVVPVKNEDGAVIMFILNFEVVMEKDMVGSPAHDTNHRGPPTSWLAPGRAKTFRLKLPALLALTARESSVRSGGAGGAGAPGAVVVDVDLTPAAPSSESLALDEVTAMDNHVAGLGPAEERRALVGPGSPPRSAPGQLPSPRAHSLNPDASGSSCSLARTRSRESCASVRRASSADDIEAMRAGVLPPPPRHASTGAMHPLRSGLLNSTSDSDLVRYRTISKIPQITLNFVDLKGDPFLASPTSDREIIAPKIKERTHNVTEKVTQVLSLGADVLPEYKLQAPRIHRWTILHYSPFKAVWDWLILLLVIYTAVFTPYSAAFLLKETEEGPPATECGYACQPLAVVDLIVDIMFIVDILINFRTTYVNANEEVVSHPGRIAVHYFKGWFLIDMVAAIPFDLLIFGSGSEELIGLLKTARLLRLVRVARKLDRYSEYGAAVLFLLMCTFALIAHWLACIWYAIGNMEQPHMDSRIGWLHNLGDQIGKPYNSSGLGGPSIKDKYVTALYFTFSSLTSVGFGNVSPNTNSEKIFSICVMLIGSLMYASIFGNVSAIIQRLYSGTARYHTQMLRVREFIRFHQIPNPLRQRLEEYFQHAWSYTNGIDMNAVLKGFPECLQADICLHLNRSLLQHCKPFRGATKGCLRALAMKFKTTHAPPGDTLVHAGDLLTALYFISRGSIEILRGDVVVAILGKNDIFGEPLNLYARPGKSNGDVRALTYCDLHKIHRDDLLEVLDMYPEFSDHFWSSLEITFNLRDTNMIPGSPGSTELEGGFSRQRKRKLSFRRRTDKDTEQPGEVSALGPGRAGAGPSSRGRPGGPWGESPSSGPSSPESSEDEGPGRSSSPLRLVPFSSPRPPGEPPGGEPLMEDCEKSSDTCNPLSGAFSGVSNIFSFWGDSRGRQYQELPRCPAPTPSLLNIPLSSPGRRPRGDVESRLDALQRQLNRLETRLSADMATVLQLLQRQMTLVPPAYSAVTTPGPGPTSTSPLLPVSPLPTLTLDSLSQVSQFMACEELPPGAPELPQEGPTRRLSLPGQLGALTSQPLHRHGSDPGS

Point of comparison: `Cc1ccc(-c2nn(-c3ccc(F)cc3)cc2C(=O)NC2CCC(O)CC2)cc1` (centres unmarked), “hERG current change (%, negative = inhibition) at 1uM” value 16.2%. Against it:
- CCOC(=O)CN1C(=O)C2Cc3ccccc3CN2C1=S (centres unmarked) — lower, -8.2%
- COc1ccc(OCC(=O)OCC(=O)c2ccc(OC)c(F)c2)cc1 — lower, 6.96%
- COc1ccc(-c2oc3ccc(N4CCOCC4)cc3c2/C=C/c2ccc(OC)c(OC)c2)cc1 — lower, 11.1%
- Cn1c(=O)[nH]c(=O)c2c1nc(CN1CCOCC1)n2CCc1ccccc1 — lower, 13%
- O=C(NC(=S)NC1CCSC1=O)c1ccc([N+](=O)[O-])cc1 (centres unmarked) — higher, 17.5%
- O=C(Oc1ccccc1)c1cccc(N2C(=O)CCC2=O)c1 — lower, 3.68%
- COc1ccc(C(=O)CCC(=O)Nc2ccc(N3CCN(C)CC3)cc2)cc1OC — lower, 12%
- Cc1ccc(-c2csc3ncnc(OCC(=O)NC(=O)NCc4ccco4)c23)cc1 — lower, 6.78%
- O=c1ccc2c(o1)/C(=C/C=C(Cl)Cl)CCC2 — lower, 12.9%
- Cc1ccc(CNn2cnnc2SCc2ccc(F)cc2)cc1 — lower, -3.08%
- O=C1/C(=C/c2cccnc2)SC(=S)N1C1CCS(=O)(=O)C1 (centres unmarked) — lower, 5.29%
- CCOC(=O)c1c(-c2ccccc2)csc1NC(=O)CSc1nnc(C)s1 — higher, 17.2%
- CCOc1ccc(NC(=O)CN(C)C(=O)Cn2c(=O)oc3ccccc32)cc1OCC — lower, 7.33%
- Nc1ccccc1Nc1ccccc1 — lower, -9.71%
- COc1ccc(OCc2cc(C(=O)N3CCC(c4ccccc4)CC3)no2)c(Cl)c1 — lower, -3.22%
- Cc1ccc(C(=O)CSc2nnc(-c3ccccc3)n2-c2ccccc2)o1 — lower, 4.53%
- COc1ccccc1N(CC(=O)NCc1ccccc1C)S(=O)(=O)c1ccc(C)cc1 — lower, -3.78%
- COCCSc1nnc(NC(=O)C2CC(=O)N(c3ccc(Cl)cc3)C2)s1 (centres unmarked) — lower, 5.22%
- Cc1ccc(C(=O)Nc2ccc(S(=O)(=O)N3CCOCC3)cc2)cc1Br — lower, 5.92%
- COc1ccc(C)cc1S(=O)(=O)N1CC(C)OC(C)C1 (centres unmarked) — lower, 15.2%
- CCCN(CCC)CC(O)COc1ccccc1C(=O)Nc1ccccc1.Cl (centres unmarked) — lower, -35.8%
- Cc1oc2cc3oc(=O)c(CCC(=O)N4C[C@H]5C[C@@H](C4)c4cccc(=O)n4C5)c(C)c3cc2c1C — lower, -5.27%
- COc1cc([C@@H]2[C@H]3CNCC=C3C(C#N)=C(N)C2(C#N)C#N)ccc1OC(C)C — lower, 3.66%
- COc1ccc(NC(=O)CSc2nc3ccccc3nc2N2CCOCC2)cc1 — lower, 5.65%
- CCc1ccccc1NC(=O)C1(S(=O)(=O)c2ccc(C)cc2)CC1 — lower, -17.8%
- O=C1c2ccccc2C(=O)N1c1ncc(Cc2ccc(Cl)cc2)s1 — higher, 17.6%
- O=C(CSc1nc(=O)n2ccccc2n1)N1CCCc2ccccc21 — lower, 7.16%
- Cc1cccc(C)c1NC(=O)CSc1nnc(-c2cccnc2)o1 — lower, 11.8%
- Cc1ccsc1/C=N\NC(=O)c1ccc2c(c1)OCO2 — lower, 3.91%
- COc1ccccc1C(=O)NC(=O)COc1cc(Cl)ccc1Cl — lower, 10.4%
- CC(C)CC(NS(=O)(=O)OCC(Cl)(Cl)Cl)c1ccccc1 (centres unmarked) — lower, 6.1%
- COCCSc1nc2c(c(=O)[nH]c(=O)n2C)n1CCCc1ccccc1 — lower, 2.78%
- O=C(COc1cccc(C(F)(F)F)c1)Nc1cccnc1 — lower, 12.4%
- CCc1ccccc1NC(=O)CSc1nnc(CCNC(=O)OC(C)(C)C)o1 — lower, 12.6%
- Cn1c(=O)c2c(nc(N3CCN(c4ccccc4)CC3)n2CCCc2ccccc2)n(C)c1=O — lower, 14.2%
- CC(=O)N[C@H]1C(O)O[C@H](CO)[C@@H](O)[C@@H]1O (some centres unmarked) — lower, 10.3%
- O=C(O)COc1ccc(-c2nccc(-c3cccs3)n2)cc1 — lower, 2.67%
- O=C(Cc1ccc(Cl)c(Cl)c1)NC1CCCCCC1 — lower, 10.8%
- O=C(NCc1ccccn1)C(=O)C1C(=O)Nc2ccccc21 (centres unmarked) — lower, 12.4%
- O=C(CSc1nnc(NC(=O)c2ccccc2)s1)NCc1ccco1 — lower, 13.8%
- CCN1C(=O)[C@H]2[C@@H](c3ccc(-c4ccc(F)cc4)c(OC)c3)N3CCC[C@@]3(C(=O)OC)[C@H]2C1=O.O=C(O)C(F)(F)F — higher, 18.4%
- Cc1nc(NC(=O)c2cccc(Cl)c2)sc1-c1csc(Nc2cccc(Cl)c2)n1 — lower, 5.12%
- O=C1CCN(S(=O)(=O)c2ccc(Cl)cc2)CCN1 — lower, 5.06%
- COC(=O)c1ccc(NC(=O)CCc2c(C)nc3ncnn3c2C)cc1 — lower, 13.7%
- CN(C)CCNC(=O)CNC(=S)N(Cc1ccccc1)Cc1ccccc1F — lower, -1.59%
- CCCN(Cc1nnc(-c2ccccc2Cl)o1)C(=O)c1cc([N+](=O)[O-])cc([N+](=O)[O-])c1 — lower, -26.8%
- CC(C)CNC(=S)N1CCN(C)CC1.O=C(O)C(=O)O — lower, 13.6%
- CC(C)(C)NC(=O)C(c1cccs1)N(C(=O)C(=O)NC1CCCC1)c1ccccc1F (centres unmarked) — lower, 10.3%
- O=C(/C=C/c1ccc(Cl)c(Cl)c1)NC1=NCCS1 — higher, 17.7%
- COC(=O)/C=C(\C)NC(=O)c1cccs1 — lower, 9.88%
- O=C(COC(=O)CCC(=O)Nc1nccs1)NCc1ccco1 — lower, 10.5%
- CCOc1cc(CNC2CCCC2)cc(Cl)c1OCc1ccc(F)cc1.Cl — lower, 12.7%
- O=C(COC(=O)c1ccc([N+](=O)[O-])o1)Nc1cccc(S(=O)(=O)N2CCOCC2)c1 — lower, -0.328%
- c1cc(C2OCCN2CC2COC3(CCCC3)O2)ccn1 (centres unmarked) — lower, 8.3%
- CCOC(=O)[C@H](CCc1ccccc1)N[C@@H](C)C(=O)N1CCC[C@@H]1C(=O)O.O=C(O)/C=C\C(=O)O — lower, 12.2%
